The other results are listed elsewhere or left out.

T1: UNK ZnF1-3 (human, UniProt Q9C0B0 31-174)
T1 sequence: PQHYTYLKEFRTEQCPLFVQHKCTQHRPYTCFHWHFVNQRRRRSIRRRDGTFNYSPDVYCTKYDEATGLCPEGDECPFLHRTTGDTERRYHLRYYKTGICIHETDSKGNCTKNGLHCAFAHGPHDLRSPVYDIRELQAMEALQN

B1: chr4:76721835:76721836:+_ENSG00000138768_ENST00000264904|hu_mus|hu_hu_hu_mus_True|38_48 (ssRNA)
RNA: GGGAGUUCUACAGUCCGACGAUCGUUUGGCUGGGGUUUCUGAGACGCUCUGGAAUAUAACUCAUGUUUGCUAAUAAAUCCUAGUUUUCUAUGAAAUUCUCUUUGCCCAAUCCUCUUCUCUAUUAGUUGCUUUAGUUUCUCUUUCAACAGAGGAUUGAGCAUCA
B2: chr13:100192331:100192332:-_ENSMUSG00000052727_ENSMUST00000064762|mus_hu|motif|central (ssRNA)
RNA: GGGAGUUCUACAGUCCGACGAUCGCAAAUGAUUAAAUCUUAAUUAAAUGAGUAUUGGAAAGCUCCUAGACUGCAUAAGCGGUUGGAGACACUUAAAACAUUCAUAUACACUGGGGAAACCAUUCACUAUGAUAUGUAACGUUACAACAGAGGAUUGAGCAUCA
B3: 129337241_129337361_1839_3pUTR_ENSMUSG00000041220_ENSMUST00000071402|mouse|control|control (ssRNA)
RNA: GGGAGUUCUACAGUCCGACGAUCGGGCUGGCAUUUGUUACACAUGGUACAAGACUCCAUUUUCAAGCCAGCCAGCUGAGCUUCUUCCCUUUCAGUUCUGCAUUUACUCCUCCGUCCUAAAGUUUGGGGCAACUGAACAACGGACAACAGAGGAUUGAGCAUCA
B4: chr2:168013125:168013126:-_ENSMUSG00000051149_ENSMUST00000088001|mus_hu|FALSE|FALSE (ssRNA)
RNA: GGGAGUUCUACAGUCCGACGAUCCUCCCAUGUAGUGUUUUUCAAAUAAAAGUCAUUAGGUUCAAAUUGUUUAAAAUCUUCUAUAUGUUCUUUACAGUAUUCCAACCCAAUGUCACUAAGUAUUUUUUUCACAGUUUUCCGGGCCAACAGAGGAUUGAGCAUCA
B5: chr2:149803492:149803493:+_ENSG00000168280_ENST00000414838|hu_hu|FALSE|FALSE (ssRNA)
RNA: GGGAGUUCUACAGUCCGACGAUCAGUUUUGCUGACCUUUUCGCUCCCAGCCAAAUCAACCAAAUAAAGUUUCCCACUGAGUUUUUUUUCAGUCUCUACAUUCUCUUGUUUAAUAUUUAUCAGGAAGAUACUGUGACUUCUAGACAACAGAGGAUUGAGCAUCA
B6: chr2:31460152:31460153:+_ENSMUSG00000026843_ENSMUST00000055244|mus_mus|FALSE|FALSE (ssRNA)
RNA: GGGAGUUCUACAGUCCGACGAUCGUUCUGGAUCUUCUUAAUCAUUUCUCCGUUCCUUCCUAUGACAAUCCCAACAACAAACCUAGGCACAGACACCUCUAUACUACCUCCGCCUGCUCGGGAGGUGAAAUCGCUGCGCACACCCAACAGAGGAUUGAGCAUCA
B7: chr22:19452774:19452775:-_ENSG00000070010_ENST00000399523|hu_hu|hu_hu_hu_mus_False|8_88 (ssRNA)
RNA: GGGAGUUCUACAGUCCGACGAUCCUUCUCAUUGUAGUUGAUAGCAAUCACAUCCCCAGUCGUCAGACAGGCGAAGUUUCUCAAUGCAUUUUCUAAUACCGCUUUAGGGUUGGUAAUAUCCAGGAAGUCAGGGCUCUGAGGCUGCAACAGAGGAUUGAGCAUCA
B8: chr7:54823571:54823572:-_ENSG00000132432_ENST00000352861|hu_mus|hu_hu_hu_mus_False|58_88 (ssRNA)
RNA: GGGAGUUCUACAGUCCGACGAUCUCCCAUGAUAGCAAAUCCUAUAGCUGUUGCCAUGGCAAUCUUCUGGAAUUCUUUUCUAUCAGGUUUGGUGCAUCUUUUAACCAGCCGAAUUGAGUCCUUUACAAACUGCCGGCUGGGCUCCAACAGAGGAUUGAGCAUCA
B9: chr17:60770872:60770873:+_ENSG00000011028_ENST00000303375|hu_mus|motif|central (ssRNA)
RNA: GGGAGUUCUACAGUCCGACGAUCUCUUUAAAAAAAAAAAAAAAAAGACAAACAAUAAUAGCACAUUUCGAGAAUCAAGAACGGCAAUAGAGGGUCCGCUUUGAGUUUUUGUUCACAUCGUCCUGCACUGGGACACGGGGACUGCAACAGAGGAUUGAGCAUCA
B10: chr8:100899844:100899845:-_ENSG00000164919_ENST00000517682|hu_hu|motif|central (ssRNA)
RNA: GGGAGUUCUACAGUCCGACGAUCUUGAUCAGCCACACGAAACUUAUACAAAGCUGCAACCCCCAGGGAUAGCACGAAUGCGGCAGCCAUAUGAUUUCGCAGACGCCUGGCCAGAAGGCCACGCAUCCGAGGUUUUGGCAAAACCAACAGAGGAUUGAGCAUCA
B11: chr2:32530670:32530671:+_ENSG00000119820_ENST00000437765|hu_mus|FALSE|FALSE (ssRNA)
RNA: GGGAGUUCUACAGUCCGACGAUCCUCCAAUCCCUCCAGCAAGAAUUCCCAGCGUAAUACAAAUGUAACACCAUCUUUUUGAUUCAUGUACAACUUGGAUCACACUCCAGUAUAUAAGGACAAAAAAUAAAUGUACAAUAAAAACAACAGAGGAUUGAGCAUCA
B12: 87970343_87970463_7099_CDS_ENSG00000188994_ENST00000369577|human|control|control (ssRNA)
RNA: GGGAGUUCUACAGUCCGACGAUCAUUUCUAGCCUUUAUAGAAUAUACAUGCUUCCCACGUUUCAGAGAAUAAGGCUUAUUUUCUUCAAUCUGCACAAUCUUUGCAUUCUUGUUUUCUAAAUUAUUUUUUUUCUUUCGUUUGGUCAACAGAGGAUUGAGCAUCA
B13: chr11:29608638:29608639:+_ENSMUSG00000020458_ENSMUST00000102843|mus_mus|motif|central (ssRNA)
RNA: GGGAGUUCUACAGUCCGACGAUCAAGUUUUUCCUCUGCUUCUUUCGUAAGUACUUUGGGUUUAACUAUGUUGCCCAUUUCGGUUUGAGAUUCCAAAGCAGAAACAUUUGGAAGCAAUAAGGGCACCUUAGAUACACUGGACCUCAACAGAGGAUUGAGCAUCA
B14: chr1:187193504:187193505:+_ENSMUSG00000026615_ENSMUST00000046514|mus_mus|FALSE|FALSE (ssRNA)
RNA: GGGAGUUCUACAGUCCGACGAUCAUCAAUCUCAGUGUGCUCCAUCAGGUUAGUCCCAUACAGCCCAGACGUAGUUGCAAUUCUAGCCAGGUAGCGCAGGAUUGAAUUCACGUCAGUGAAUGCCACAGUCUCAGAAACCCGAAGCAACAGAGGAUUGAGCAUCA

This experiment has as its target T1, UNK ZnF1-3. Nature of the experiment: nsRBNS (natural sequence RNA bind-n-seq); RBNS binding buffer (assumed for nsRBNS): 25 mM Tris pH 7.5, 150 mM KCl, 3 mM MgCl2, 0.01% Triton X-100, 500 ug/ml BSA, 20 U/ml SUPERase-In, 4 C; UNK is unkempt and MSI1 is Musashi-1; names of the RNAs are library labels; protein concentration not given here; high values mean tight binding.
B1 registered a binding signal of 0.582 enrichment R.
Then B2, with 1.23 enrichment R; and B3, with 0.894 enrichment R; and B4, with 0.831 enrichment R.
As to B5, the binding signal was 1.02 enrichment R.
The molecule B6 yielded a binding signal of 0.985 enrichment R.
Consider B7, for which the binding signal was 0.905 enrichment R.
In turn, B8 gave a binding signal of 0.737 enrichment R.
In turn, B9 displayed a binding signal of 2.88 enrichment R.
B10 came in with a binding signal of 1.26 enrichment R.
In turn, B11 gave a binding signal of 2.48 enrichment R.
B12 showed a binding signal of 0.634 enrichment R.
B13 showed a binding signal of 0.647 enrichment R.
B14: the binding signal was 0.933 enrichment R.

The values above are taken from publication PMC12136788.
